Measured values taken from PubChem BioAssay AID588855 (National Center for Advancing Translational Sciences (NCATS), 2011).
“And” between values parts separate entries of the source, which are not always exact repeats. Identical values can stand only once. Out of some 410,000 compounds screened, about 5,000 (1.2%) were called active. Inconclusive results, whose numbers are uncertain, are shown with a selection of clear calls. Calls come from the whole dose curve; as a rule, active = well fitted inhibition curve with a large enough effect; inconclusive = small, poorly fitted or top-dose-only effect; inactive = no such curve, though single readings can be large or run the other way. Potencies of inconclusive entries are doubtful fits and often do not repeat.

experiment: qHTS for Inhibitors of TGF-b; details: HepG2 CAGA-GFP TGF-b/SMAD3 reporter, GFP fluorescence, 18 h, TGF-beta stimulated, 500 pg/mL final; series mostly up to 46.1 µM; note: nearly all actives have a fitted effect of over 65% in size
Procedure, shortened: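 HEPG2 CAGA-GFP reporter cells (1000/well, DMEM with 1% FBS) received compounds, then recombinant TGF-beta at 500 pg/mL final for 18 hours at 37 degrees C. Per-cell GFP summed per well was normalised to unstimulated and stimulated DMSO controls before curve fitting.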
Potency is the fitted concentration of half-maximal effect; tags give direction and shape of the fitted curve.

| SMILES | Potency |
| --- | --- |
| C(=C\c1ccccn1)/c1ccccc1 | inconclusive: 35.5 µM [inhibitor, single point] |
| O=C(CCS(=O)(=O)c1ccccc1)N(CCCN1CCOCC1)c1nc2ccc(F)cc2s1 | inconclusive: 8.91 µM [inhibitor, partial curve, poor fit] |
| O=C(CC(=O)c1ccncc1)c1ccccc1 | inconclusive: 35.5 µM [inhibitor, single point] |
| CC(=O)n1c(Cl)c(NC(=O)CCl)c2ccccc21 | inconclusive: 35.5 µM [inhibitor, single point] |
| C(=C\c1ccccc1)/CN1CCN(C(c2cccc3ccccc23)c2nnnn2C2CCCC2)CC1 (centres undefined) | inconclusive: 35.5 µM [inhibitor, single point] |
| Cc1noc(C)c1S(=O)(=O)N1CCC(C(=O)N2CCN(c3cccc(C(F)(F)F)c3)CC2)CC1 | inconclusive: 35.5 µM [inhibitor, single point] |
| CC(C)NC(=O)CCC(=O)N1Cc2ccccc2Oc2ncccc21 | inactive |
| O=C(NCCCN1CCN(c2ccccc2)CC1)c1ccc2nc(Cc3ccccc3)oc2c1 | inconclusive: 22.4 µM [inhibitor, single point] |
| CCc1ccc(OCC(=O)NC(NC(=S)Nc2ccc(Cl)cc2)C(Cl)(Cl)Cl)cc1 (centres undefined) | active: 7.08 µM |
| Cc1ccc(Cn2c(C(C)NC(=O)c3ccccc3)nc3ccccc32)cc1 (centres undefined) | inactive |
| CCOC(=O)C1CCCN(C(=O)c2ccco2)C1 (centres undefined) | inactive |
| O=C(CCCn1cnc([N+](=O)[O-])n1)Nc1cc(Cl)ccc1O | inactive |
| COc1ccc(-c2cc(C(=O)NC(C)c3ccccn3)c3ccccc3n2)cc1OC (centres undefined) | inactive |
| C/C1=C\CCC2C(/C=C(\C)CC1)OC(=O)C2CN1CCCCC1 (centres undefined) | inconclusive: 35.5 µM [inhibitor, single point] |
| COC(=O)C(C)N(C#N)c1nc(C)nc(C)n1 (centres undefined) | inconclusive: 15.8 µM [inhibitor, single point] |
| O=C(O)COc1ccc(Br)cc1/C=N\Nc1ccccn1 | inactive |
| CCCCOC(=O)c1ccc(NC(=O)/C=C/c2cccs2)cc1 | inconclusive: 35.5 µM [inhibitor, single point] |
| CC(=O)NC1CCCc2c1cnn2-c1ccc(C(C)(C)C)cc1 (centres undefined) | inactive |
| Cc1ccc(CCNc2ccc3ccccc3c2)cn1 | inconclusive: 3.55 µM [inhibitor, single point] |
| C=CCN=C1N[C@@H](c2ccc(Br)cc2)C(C(=O)OC)=C(C)N1Cc1ccccc1 | inconclusive: 35.5 µM [inhibitor, single point] |
| Cc1ccc(NC(=O)CN(C(=O)N2CCN(C)CC2)S(=O)(=O)c2ccc(C)cc2)cc1 | inactive |
| CCCC(C)(C)C(=O)N1CCC1(C)C(=O)NS(=O)(=O)c1ccc(Cl)cc1 (centres undefined) | inactive |
| COc1cc(C)c(NC(=S)Nc2ccc(C)c(Cl)c2)cc1OC | inactive |

| SMILES | Potency |
| --- | --- |
| O=c1c2cc(Br)ccc2nc(-c2cccc(Cl)c2)n1O | inconclusive: 35.5 µM [inhibitor, single point] |
| O=C(c1cc2nc(-c3ccco3)cc(C(F)(F)F)n2n1)N1CCN(c2ccc(F)cc2)CC1 | inconclusive: 11.2 µM [inhibitor, partial curve, poor fit] |
| Cc1cccc(NS(=O)(=O)c2ccc(C)c(C(=O)N(C)C3CCN(C)CC3)c2)c1 | inactive |
| O=C1CCc2cc(S(=O)(=O)NC(Cc3ccccc3)C(=O)NCC3CCCO3)ccc2N1 (centres undefined) | inactive |
| CCCNC(=O)c1n[nH]c2c1CC(C(C)(C)CC)CC2 (centres undefined) | inconclusive: 14.1 µM [inhibitor, single point] |
| COc1ccc(C(=O)O/N=C(\N)c2ccc(Cl)cc2)cc1 | inactive |
| COc1ccc(CNC(=O)C[C@H]2C(=O)N(C3CCCCC3)C[C@@H]2Cc2ccccc2)cc1 | inactive |
| C/C=C1\COC(C(=O)NCCCN2CCCC2=O)(C(F)(F)F)C=C1C=C(C)C (centres undefined) | inconclusive: 20 µM [inhibitor, partial curve, poor fit] and inconclusive: 12.6 µM [inhibitor, partial curve, poor fit] |
| Cc1cccc(NC(=O)Nc2cccc3ccccc23)c1 | inactive |
| COc1ccc(CN(C)C(=O)C2CC(=O)N(c3ccc4c(c3)OCCO4)C2)c(OC)c1 (centres undefined) | inactive |
| Cc1cc(Cl)ccc1NS(=O)(=O)c1c(C)[nH]c(=O)[nH]c1=O | inactive |
| O=C1C2CCCN2C(=O)N1CCN1CCN(CCO)CC1 (centres undefined) | inactive |
| Cc1cc(/C=C2/NC(=O)N(c3ccccc3)C2=O)c(C)n1-c1cccnc1 | inactive |
| CC(=O)N(c1ccc(N(C(C)=O)S(=O)(=O)c2cccs2)cc1)S(=O)(=O)c1cccs1 | inconclusive: 4.47 µM [inhibitor, single point] |
| COc1ccc(-c2cc3nc(C)c(CCC(=O)NC4CCCCC4)c(C)n3n2)c(OC)c1 | inactive |
| COc1ccc(/C=N/Nc2ccc([N+](=O)[O-])cc2)cc1O | inconclusive: 35.5 µM [inhibitor, single point] |
| O=C(Nc1ccccc1)NC1CCCCC1 | inconclusive: 0.112 µM [inhibitor, full curve, poor fit] |
| CCOC(=O)CN1CCC(c2cc(-c3ccc(Cl)cc3)n[nH]2)CC1 | inconclusive: 12.6 µM [inhibitor, partial curve] |
| O=C(NCCc1ccc(Cl)cc1Cl)c1cc([N+](=O)[O-])c[nH]c1=O | inconclusive: 8.91 µM [inhibitor, partial curve, poor fit] |
| CCN(Cc1ccccc1)C(c1cc2cc(C)cc(C)c2[nH]c1=O)c1nnnn1CCOC (centres undefined) | inactive |
| CC1CCN(CC(=O)Nc2ccc(S(=O)(=O)N3CCC(C)CC3)cc2)CC1 | inconclusive: 20 µM [inhibitor, single point] |
| O=C(CSc1ncc(S(=O)(=O)c2ccc(Cl)cc2)c(=O)[nH]1)Nc1cccc(C(F)(F)F)c1 | inconclusive: 12.6 µM [inhibitor, partial curve, poor fit] |
| O=C(N/N=C/c1cccc2ccccc12)c1cccnc1 | inconclusive: 35.5 µM [inhibitor, partial curve, poor fit] |

| SMILES | Potency |
| --- | --- |
| CCC/C=C/c1ccc(CN2C(C(C)C)C(=O)N(Cc3cn(CC4CCCCC4)nn3)CCS2(=O)=O)cc1 (centres undefined) | inconclusive: 22.4 µM [inhibitor, single point] |
| Cc1ccc(N=C2NC(=O)/C(=C/C=C/c3ccco3)S2)cc1C | inconclusive: 11.2 µM [inhibitor, partial curve, poor fit] |
| Cc1cc(OCC(=O)N(Cc2ccc(N(C)C)cc2)CC2CCCO2)ccc1Cl (centres undefined) | inconclusive: 35.5 µM [inhibitor, single point] |
| CCOC(=O)CNC(=O)CSc1nc2ncc(Br)cc2[nH]1 | inconclusive: 25.1 µM [inhibitor, single point] |
| CCN1CCN(c2ccc(S(=O)(=O)N3CCCCC3)cc2NC(=O)CCNC(C)=O)CC1 | inactive |
| Clc1cccc(Cc2c(-c3ccccc3)nc3ccc(Cl)cn23)c1 | inconclusive: 35.5 µM [inhibitor, partial curve, poor fit] |
| CCCCCCN1C[C@H](n2cc(-c3ccc(F)cc3)nn2)[C@@H](O)C[C@@H]1c1ccc(OC)cc1 | inconclusive: 35.5 µM [inhibitor, single point] |
| COCCNc1nc(NCCOc2ccccc2)c2sc(-c3ccccc3)cc2n1 | inconclusive: 31.6 µM [inhibitor, single point] |
| CCOc1ccc(-c2nc(CN(Cc3ccccc3)C[C@@H]3CCC(=O)N3)c(C)o2)cc1 | inconclusive: 25.1 µM [inhibitor, single point] |
| CCOC(=O)c1ccc(N2CCCCC2)c(NS(=O)(=O)c2cccc(C(F)(F)F)c2)c1 | inconclusive: 11.2 µM [inhibitor, partial curve] |
| CCN1C(=O)C2(C(C#N)=C(N)Oc3c2c(C)nn3-c2ccccc2)c2ccccc21 (centres undefined) | inconclusive: 35.5 µM [inhibitor, single point] |
| Nc1nn(S(=O)(=O)c2ccccc2)cc1-c1ccc([N+](=O)[O-])cc1 | inconclusive: 10 µM [inhibitor, partial curve] |
| COc1ccc(Cn2c(=O)c3cccnc3n(Cc3cccc(F)c3)c2=O)cc1 | inactive |
| Cc1ccccc1Nc1c([N+](=O)[O-])cncc1[N+](=O)[O-] | inconclusive: 12.6 µM [inhibitor, partial curve] |
| COCCCNC(=O)CCC(=O)NNc1nc2ccccc2c2nc(C)nn12 | inactive |
| Cc1ccc(N(C(=O)CCCC(=O)Nc2ccccn2)C(C(=O)NC2CCCC2)c2ccc(O)cc2)cc1C (centres undefined) | inconclusive: 22.4 µM [inhibitor, single point] |
| CC(=O)Nc1c(C)ccc2nsnc12 | inactive |
| COc1cccc(CNC(=O)CCNC(=O)Cn2ccc3ccccc3c2=O)c1 | inconclusive: 22.4 µM [inhibitor, partial curve, poor fit] |
| CC(C)Oc1ccc(-c2nc3c(C#N)c[nH]n3c2NC2CCCCC2)cc1 | inconclusive: 22.4 µM [inhibitor, single point] |
| COc1ccccc1-c1csc(C(O)c2cccc(Cl)c2)n1 (centres undefined) | inconclusive: 35.5 µM [inhibitor, single point] |
| Cc1ccc(C(=O)NCCc2cc3ccc(C)c(C)c3[nH]c2=O)cc1[N+](=O)[O-] | inactive |
| S=c1[nH]nc(-c2cc(-c3ccccn3)nc3ccccc23)o1 | inactive |
| CCCN(CC(=O)Nc1ccccc1OC)CC(=O)c1c(N)n(Cc2ccccc2)c(=O)n(C)c1=O | inconclusive: 15.8 µM [inhibitor, single point] |
